The source gives no read counts; variants with many changes may rest on few reads.

B1: OR4K15 (parent)
chain: GUUAACGGUCAUAGGCCAUGGAAACUAGGAGCACCAUUUCGCUGCCAGUGAAGAAAUGAACAAAGAAAAUCUGGGCCAGGCAGGCAUCAAAAGAAAUAGUCUUGCGCUCAACCAGAAAGUCUGUAAUCAUUUUAAGGGUA

In the series the parent is B1. Description: self-cleavage, relative activity (ratio to wild type); higher = more cleavage; in vitro, sequencing; the parent is a self-cleaving ribozyme.
For the variant U12A U49C A78G A82G A114U, the self-cleavage turned out to be 0.05.
Take A11G U70C U87C A114U: the self-cleavage amounted to 0.03.
Turning to A11G A95G A114U, the self-cleavage was 0.11.
As for U12C A36G G79U C81U, the self-cleavage amounted to 0.1.
For A11G A22U U43A A67G, the self-cleavage was 0.84.
Turning to U12A A52G A118G, the self-cleavage was 0.56.
Consider A11G A51G A78G, for which the self-cleavage is 0.49.
With U12A A47U A63G the figure was 1.07; with A11G A13G U38A A52G A90G, 0.54; with A11U U26C U120C, 1.2.
Take A11G A18U G21A A47U: the self-cleavage was found to be 0.93.
Turning to A11U A95G U97C, the self-cleavage was 0.34.
With U12C A22U A95G the figure was 2.18; with U12A U102C A126G U131C, 1.62; with U12C A86G A111G, 0.06.
Turning to U12C A22G A23G U102C U130C, the self-cleavage is 1.07.
With A11G A56G A62G A140G, the self-cleavage was determined as 1.13.
With A11G A13G A54G A55G A62G the figure was 0.49; with U12C A60G A66G A86U A117U, 0.9; with A11G A13G A66G A67U, 0.96.
Consider A11U A62G U72C, for which the self-cleavage is 0.29.
The result for A11G U12C U19C reads 0.81.
With A11G A47G A94G the figure was 1.78; with A11G A18G U57C A116G, 0.55; with A11C U70G A90U U127C, 1.4.
Regarding A11G A56G U87C C128A, the self-cleavage was 0.8.
As to A11G U43A A54U A91G U108C A116G, the self-cleavage turned out to be 0.07.
U12C A22G A92G: the self-cleavage is 1.05.
Regarding A11G A110G U132C A134C A135G, the self-cleavage came to 0.07.
On to U12C A67G A110G, for which the self-cleavage amounted to 0.36.
The result for A11G G29C A60G A111U reads 0.1; that for U12A A64G A129G, 1.23.
U12C A59U A68G A69U: the self-cleavage was determined as 0.95.
Consider A11U U39A A60G A96G U108C, for which the self-cleavage is 0.05.
A11G A52G A55G G83A G115U: the self-cleavage was 0.13.
For the variant A11G U43A A125U A140G, the self-cleavage is 2.28.
With A11G A125G A126G, the self-cleavage was 0.37.
As to U12A U39A A54G C61G A111U, the self-cleavage worked out at 0.18.
For U12A C46U G138A, the self-cleavage amounted to 1.12.
Turning to A11U A30U A47U U57A U108C, the self-cleavage stood at 0.03.
With A11G C42U U43C A47G G83A the figure was 0.93; with U12C A59U U70C U130C, 0.43; with A11U A66G A116G U124C, 0.32.
With A11G C34G U38C, the self-cleavage was 1.32.
Take A11U A69G U72A: the self-cleavage was determined as 0.47.
For A11G U100C A116G A117U, the self-cleavage turned out to be 1.13.
In the case of A11U U38C G75C U102C, the self-cleavage is 0.11.
In the case of A11G U37C G53U U102C A111U, the self-cleavage is 0.01.
Regarding A11G A23U U120C, the self-cleavage was 0.5.
With A11G A66G A90G A95G A110G the figure was 0.04; with U12C A23U A68G U130A, 0.66; with A11G A24G U26C A60G G80A U87C, 0.17.
A11G C77U A86C U100C: the self-cleavage came to 0.76.
The result for A11G U49C U122A reads 0.37.
As to A11U U37C U39C U133A, the self-cleavage came to 1.8.
Take U12A U19C A66U: the self-cleavage is 1.65.
As for A11U A52G U87C, the self-cleavage came out at 1.31.
As to A11G U72A A95G A114U, the self-cleavage is 1.2.
A11G A23G A52G A63G A67G A110G: the self-cleavage came to 0.12.
Consider U12A A60G A63U A117G, for which the self-cleavage is 1.48.
For the variant A11G U37C A51G A90U, the self-cleavage came out at 1.53.
With A11C A117G U120A A129U the figure was 1.85; with A11G A24C U43A U57C A91U A92G U120C, 0.3.
As for U12C A59G A66G A69G, the self-cleavage was found to be 0.88.
With U12C A66U A69G C128U, the self-cleavage was 1.09.
Take A11U A68G A82G A94G: the self-cleavage was found to be 0.6.
The result for U12C A60G A62G U72C A110U U127C A140U reads 0.08; that for U12C A22U A30G A82G A126G, 0.41.
As to A11G U43G U70A U72A, the self-cleavage came out at 0.25.
As to A11G U102C A114U U130C, the self-cleavage was determined as 0.03.
Take A11G A62U U87C C121U: the self-cleavage is 1.32.
U12C A23C A60G A86G U131C: the self-cleavage worked out at 0.41.
Turning to A11G A23U U37C U49A A118G, the self-cleavage was 0.99.
For the variant A11G U43C A92U, the self-cleavage is 1.6.
The result for A11G A36G U122C reads 0.77; that for A11U C17U U57C A94G, 0.7; that for U12C A54G A55C, 1.36.
In the case of U12C A18G A90G U100C, the self-cleavage was 1.2.
For the variant U12C A68G A95G, the self-cleavage was 1.99.
The result for U12C A18G U43A A62G U131C reads 1.03; that for A11G A59G A129G, 0.75; that for A11G A60G A82G A110G, 0.03.
Regarding U12A A24U A96G, the self-cleavage was 1.61.
For the variant A11G A23G A95G U103C U139C, the self-cleavage was determined as 0.73.
As to A11U C107U A116G U120C, the self-cleavage stood at 0.01.
Turning to U12C A22G A30U A91G, the self-cleavage amounted to 0.75.
On to U12A U43C U102C U108C A117G, for which the self-cleavage came out at 0.02.
For A11G U39C A56G A66G U108C, the self-cleavage amounted to 0.04.
In the case of A11U U19C A24G A68G A89G A92G G93A, the self-cleavage was determined as 0.53.
With U12A A22U A36U the figure was 1.74; with A11G A52G A94G C105U, 0.04.
Regarding U12A A56G A69U, the self-cleavage is 0.73.
As for A11G U103C U130A, the self-cleavage is 0.08.
Consider A11G A56G G123A, for which the self-cleavage came out at 1.43.
As for U12A A56C A89G, the self-cleavage is 0.64.
On to A11G U19C A66G A126U, for which the self-cleavage is 0.38.
Turning to A11G A63G A90G, the self-cleavage amounted to 0.94.
Regarding A11G A24G U26C C42U A66G A96U U108C, the self-cleavage worked out at 0.01.
With A11U A67G U102C U103C the figure was 0.31.
The result for A11G U26G A95G A117G reads 0.98; that for A11U A55G A90G, 0.21.
Consider A11G A22G U49C A78U U97C U103A A117G, for which the self-cleavage is 0.05.
With U12C A59G A69G U102C, the self-cleavage stood at 2.14.
Regarding A11G U39C A82U A135G, the self-cleavage was 0.04.
For A11C A94G U100C, the self-cleavage worked out at 2.37.
As to A11U C25A A55G A60U U72C U120C U122C A140G, the self-cleavage is 0.12.
As to A11G U19C A78U, the self-cleavage was 0.41.
Consider A11G U38C U132C, for which the self-cleavage worked out at 1.32.
A11G A24C C42U A62G A89G A118G U120A A125G: the self-cleavage turned out to be 0.65.
Take U12C A24G A91G: the self-cleavage was 0.79.
Take A11U U12C A23U G106A: the self-cleavage was determined as 0.02.
As for A11C C25U A27G A68G, the self-cleavage worked out at 1.47.
With A11G A13G A94G U108C A118G U124A, the self-cleavage was found to be 0.02.
For the variant A11G U12C U70C U87A, the self-cleavage turned out to be 0.2.
In the case of A11G U26C U38C U130C, the self-cleavage was determined as 0.46.
The result for U12A A24C A118G U132C reads 0.04.
For the variant U12C A51G A68G, the self-cleavage was determined as 1.32.
As for A11G U37C A51U, the self-cleavage turned out to be 1.78.
For A11G G21A A66G A78U A89G U122A U132C, the self-cleavage came out at 0.22.
In the case of A11G A78U A111C A125U, the self-cleavage was 0.04.
The result for A11G A68U A82G A95G reads 0.84; that for A11G U12C G21U A23U U122C, 1.2; that for A11G U37C U102A U139C, 0.68.
For A11G A59G U131C, the self-cleavage amounted to 0.52.
Regarding A11G A23G U57C A96G, the self-cleavage came to 0.23.
Consider A11G A56C U127A, for which the self-cleavage turned out to be 0.79.
On to A11G C46A U100C U131C A135G, for which the self-cleavage is 0.96.
Take U12C A33C A140G: the self-cleavage turned out to be 1.73.
Take U12C A18U A33U U38C: the self-cleavage came to 0.89.
For the variant U12A A33C A59G A82U A111G, the self-cleavage was found to be 0.06.
The result for A11U A91G U102A reads 0.42; that for U12A U49C A51G A91G, 1.52.
The result for A11G A96G U108C reads 0.05.
With A11G A96G A114G U132C, the self-cleavage was found to be 0.32.
As to A11G A64G G106A, the self-cleavage was found to be 0.08.
Regarding A11G U19A G79U U87C, the self-cleavage is 0.1.
Turning to A11G A98U A111G U132C, the self-cleavage amounted to 0.04.
Regarding A11G A64G U108A A111U U131C, the self-cleavage was 0.02.
With U12A A82U U103C A118G the figure was 0.03; with A11G A69G A90G A91G C112U, 0.02.
With A11C U26A A116U, the self-cleavage was 0.15.
As to A11G A59G A92G U131C, the self-cleavage amounted to 0.56.
With A11G A18G A23U, the self-cleavage worked out at 0.18.
On to A11G U102C U132C U133G, for which the self-cleavage worked out at 1.45.
On to A11G A24G A67G A90G A116G, for which the self-cleavage stood at 0.11.
For the variant A11U A33G A59G A60G A116G, the self-cleavage worked out at 0.1.
Take A11G A51G A91G: the self-cleavage is 0.3.
Turning to A11G A54G A56G U120C, the self-cleavage came out at 1.24.
A11G A55G A67G A69G: the self-cleavage is 1.25.
With U12A A47U A91G A117G the figure was 0.42; with A11G A56U A60G A111G, 0.02.
With A11U U38A A86U A90G U122A, the self-cleavage was 0.97.
The result for A11G U19C A23G A94G A117G reads 2.05; that for A11U C40A U43C U130C, 0.24.
Take A11U A54G A86G A89C: the self-cleavage is 0.48.
The result for U12C A13G U120C reads 0.34; that for A11G U49C A55G U97A U120C, 0.85; that for A11U G41U G84C, 0.4.
As to U12A A30U A36U, the self-cleavage was 1.42.
For U12C A18G A62G, the self-cleavage came to 0.89.
On to U12C A30G G31U U87A, for which the self-cleavage worked out at 1.18.
With U12C A59G A125G, the self-cleavage turned out to be 0.38.
With A11U A18U U19A A24G U43C, the self-cleavage turned out to be 0.83.
Take U12C A30G A129G: the self-cleavage worked out at 0.6.
With U12C A68G A89G A111G the figure was 0.03.
Take A11G A69G U100C A125G U130C: the self-cleavage was 0.95.
Consider A11C C25U U37C U108C A110G, for which the self-cleavage turned out to be 0.04.

(Values after the RNAGym collection of RNA variant scans (doi:10.7554/elife.90254).)
